# Test results: PubChem BioAssay (NCATS)
# Inconclusive means that the source gave no clear call. Such entries were picked first, then a sample of the others. Potencies beside an inconclusive call are fits to weak or partial responses and may not hold up. Active and inactive are the calls of the source. The call rests on the fitted dose curve; in most records, active means well fitted inhibition curve with a large enough effect; inconclusive means small, poorly fitted or top-dose-only effect; inactive means flat fitted curve, though single readings scatter.
# Test system: HEK293
# Test: Cytotoxic Profiling of Annotated Libraries Using Quantitative High-Throughput Screening (AID 1296008); further: nearly all actives have a fitted effect of over 60% in size
# Details: Five cell lines viability, CellTiter-Glo ATP luminescence, 48-72 h; max response: active compounds read low
# Outline: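 Cytotoxicity was measured as CellTiter-Glo ATP luminescence, read after 10 min at room temperature. Compound treatment of the cells lasted 48 or 72 hr at 37 degrees Celsius in a qHTS format.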
# On the % scale 0 is the no-effect control and ±100 the full control effect; potency means the concentration at half of the fitted maximal effect; tags describe the fitted curve by direction and shape.
Compound,max response,Potency
NC(=O)OCCCc1ccccc1,inactive: 3.07%,–
CC[N+]1(CC)CCC(OC(=O)C(O)(c2ccccc2)c2ccccc2)C1 (stereo unspecified),inactive: 3.52%,–
O=C(O)c1cc(Oc2ccc(C(F)(F)F)cc2Cl)ccc1[N+](=O)[O-],–,"inconclusive: 29.9 µM [inhibitor, single point]"
O=S(=O)(c1ccccc1F)N1CCOc2c(N3CCNCC3)cccc21,–,"inconclusive: 29.1 µM [inhibitor, single point]"
C[C@]12CC[C@H](O)C[C@H]1CC[C@@H]1[C@@H]2[C@H](O)C(=O)[C@]2(C)[C@@H](c3ccc(=O)oc3)CC[C@]12O,–,active: 0.0326 µM
C[C@]12CC[C@H](O[C@@H]3O[C@H](CO)[C@@H](O)[C@H](O)[C@H]3O)CC1CC[C@@H]1C2CC[C@]2(C)[C@@H](C3=CC(=O)OC3)CC[C@]12O (stereo partly specified),–,active: 3.17 µM
CC12CCC3C(C1)c1c(cc(O)c(C(=O)c4ccccc4)c1OC3(C)C)O2 (stereo unspecified),–,"inconclusive: 12.8 µM [inhibitor, partial curve, poor fit]"
O=C1CN=C(c2ccccc2Cl)c2cc(Br)ccc2N1,–,"inconclusive: 29.1 µM [inhibitor, partial curve, poor fit]"
Clc1ccc([C@]23CNC[C@H]2C3)cc1Cl,–,"inconclusive: 29.1 µM [inhibitor, partial curve, poor fit]"
CC1(C)C(C=C(Cl)Cl)C1C(=O)OC(C#N)c1cccc(Oc2ccccc2)c1 (stereo unspecified),inactive: 2.42%,–
NCCCCCNC1(c2ccccc2)CCCCC1,–,"inconclusive: 20.6 µM [inhibitor, single point]"
